Assay results reported in patent EP4810513A1 (Genexine, Inc., dated 2026).
Values belong to the binder of their own block, whether it stands above or below them.

Molecular target: T1, human SRY-box transcription factor 2 (huSOX2) with C-terminal 6×His-tag, produced by Biointron (human, UniProt P48431)
T1 construct: also called huSOX2 protein; biotinylated huSOX2 (Biointron)
Test: SPR (Biacore 8K), sdAb-Fc captured on a Protein A chip, huSOX2 as analyte

T1 sequence (P48431 other isoform, or with tags, fused parts or gaps limits assumed): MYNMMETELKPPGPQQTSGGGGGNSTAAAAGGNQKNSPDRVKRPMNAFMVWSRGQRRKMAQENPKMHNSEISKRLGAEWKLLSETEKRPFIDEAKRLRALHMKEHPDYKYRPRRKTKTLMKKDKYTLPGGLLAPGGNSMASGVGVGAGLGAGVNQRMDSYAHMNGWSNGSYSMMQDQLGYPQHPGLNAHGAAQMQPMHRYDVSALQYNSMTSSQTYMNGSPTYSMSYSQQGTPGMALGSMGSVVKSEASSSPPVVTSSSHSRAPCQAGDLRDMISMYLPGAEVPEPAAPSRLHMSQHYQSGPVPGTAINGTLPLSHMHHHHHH

- koff: 0.000541 s⁻¹
- kon: 175000 M⁻¹ s⁻¹
B1: 3F11-Fc (sdAb-Fc) (Fc fusion)
chain: [human IgG1 constant region skipped]GGGGSGGGGSGGGGSDVQLVESGGGLVQPGGSLRLSCATSGFTFSSSTMSWVRQVPGAGPEWVAVDNPGGKKNYIDSVAGRFTIARDNDANSLSLVMNGLRPEDTARYFCARVLSFKIYEGDKWALEWDYRGPGTQVTVSS
notes: Expressed in Expi-CHO-S, purified on Protein A; also called 3F112-Fc

- Kd: 2.39 nM
- koff: 0.000352 s⁻¹
- kon: 148000 M⁻¹ s⁻¹
B2: 3A2-Fc (sdAb-Fc) (Fc fusion)
chain: [human IgG1 constant region skipped]GGGGSGGGGSGGGGSEVQLVESGGEQVQPGSSLKLSCSVSGLMISGHAMSWVRQVPGAGPEWVAVDNPGGKKNYIDSVAGRFTIARDNDANSLSLVMNGLRPEDTARYFCARVLSFKIYEGDKWALEWDYRGPGTQVTVSS

- Kd: 1.06 nM
- koff: 0.000226 s⁻¹
- kon: 213000 M⁻¹ s⁻¹
B3: 3H9-Fc (sdAb-Fc) (Fc fusion)
chain: [human IgG1 constant region skipped]GGGGSGGGGSGGGGSQVQLVESGGEQVQPGSSLKLSCSVSGLMISGHAMSWVRQVPGAGPEWVAVDNPGGKKNYIDSVAGRFTIARDNDANSLSLVMNGLRPEDTARYFCARVLSFKIYGGDKWALEWDYRGPGTQVTVSS
